Measured values from the supplement of paper PMC4967469.

Experiments:
Assay in all cases: Viability of human cancer cell lines after 72 h of drug (GDSC screen)
NVP-BHG712 = compound: Cc1ccc(C(=O)Nc2cccc(C(F)(F)F)c2)cc1Nc1nc(-c2cccnc2)nc2c1cnn2C [NVP-BHG712]; conditions: top dose 10.24 µM; top dose inferred
Description: (§1)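 Human cancer cell lines in 384-well plates, medium with 10% serum, drug for 72 h over a 256-fold dose range (nine 2-fold or five 4-fold steps up to the top dose). Adherent lines were fixed and stained with the nucleic acid dye Syto60, suspension lines read with resazurin; signal relative to control wells, capped at 0 and 100%. One two-parameter sigmoid per drug and line, fitted in a mixed model over all curves with the slope shared within a line.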

Midostaurin = compound: CO[C@@H]1[C@H](N(C)C(=O)c2ccccc2)C[C@H]2O[C@]1(C)n1c3ccccc3c3c4c(c5c6ccccc6n2c5c31)C(=O)NC4 [Midostaurin]; conditions: top dose 0.512 µM; top dose inferred
Description: as §1

Mitomycin C = compound: CO[C@@]12[C@H](COC(N)=O)C3=C(C(=O)C(C)=C(N)C3=O)N1C[C@@H]1N[C@@H]12 [Mitomycin C]; conditions: top dose 16 µM
Description: as §1

Bosutinib = compound: COc1cc(Nc2c(C#N)cnc3cc(OCCCN4CCN(C)CC4)c(OC)cc23)c(Cl)cc1Cl [Bosutinib]; conditions: top dose 2 µM
Description: as §1

IOX2 = compound: O=C(O)CNC(=O)c1c(O)c2ccccc2n(Cc2ccccc2)c1=O [IOX2]; conditions: top dose 0.1 µM; top dose inferred
Description: as §1

**Q.** Which AUC (NVP-BHG712) does the source give for ECC10 (stomach, suspension) here?
**A.** The AUC was 0.932.

**Q.** What about the IC50 (NVP-BHG712) of the same cell line?
**A.** Its IC50 is greater than 10200 nM.

**Q.** And the AUC (Midostaurin)?
**A.** The AUC was 0.952.

**Q.** What about the IC50 (Midostaurin) of the same cell line?
**A.** Its IC50 is greater than 512 nM.

**Q.** What about the AUC (Mitomycin C) of the same cell line?
**A.** Its AUC is 0.684.

**Q.** And the IC50 (Mitomycin C)?
**A.** The IC50 was 3360 nM.

**Q.** And the AUC (Bosutinib)?
**A.** Its AUC is 0.828.

**Q.** And the IC50 (Bosutinib)?
**A.** Its IC50 is 1310 nM.

**Q.** And the AUC (IOX2)?
**A.** Its AUC is 0.978.

**Q.** And the IC50 (IOX2)?
**A.** The IC50 was greater than 100 nM.

**Q.** How did the AUC (NVP-BHG712) turn out when JIMT-1 (breast, adherent) was run?
**A.** Its AUC is 0.924.

**Q.** What about the IC50 (NVP-BHG712) of the same cell line?
**A.** Its IC50 is greater than 10200 nM.

**Q.** What about the AUC (Midostaurin) of the same cell line?
**A.** Its AUC is 0.936.

**Q.** And the IC50 (Midostaurin)?
**A.** The IC50 was greater than 512 nM.

**Q.** And the AUC (Mitomycin C)?
**A.** Its AUC is 0.496.

**Q.** And the IC50 (Mitomycin C)?
**A.** Its IC50 is 977 nM.

**Q.** And the AUC (Bosutinib)?
**A.** The AUC was 0.854.

**Q.** And the IC50 (Bosutinib)?
**A.** Its IC50 is 1770 nM.

**Q.** And the AUC (IOX2)?
**A.** Its AUC is 0.976.

**Q.** What about the IC50 (IOX2) of the same cell line?
**A.** The IC50 was greater than 100 nM.

**Q.** Which results are given for WM35 (melanoma, adherent)?
**A.** AUC (NVP-BHG712): 0.56; IC50 (NVP-BHG712): 937 nM; AUC (Midostaurin): 0.89; IC50 (Midostaurin): > 512 nM; AUC (Mitomycin C): 0.438; IC50 (Mitomycin C): 677 nM; AUC (Bosutinib): 0.681; IC50 (Bosutinib): 402 nM; AUC (IOX2): 0.98; IC50 (IOX2): > 100 nM

**Q.** Which results are given for “NCI-H1703 (lung adenocarcinoma, adherent)”?
**A.** AUC (NVP-BHG712): 0.824; IC50 (NVP-BHG712): 7940 nM; AUC (Midostaurin): 0.877; IC50 (Midostaurin): > 512 nM; AUC (Mitomycin C): 0.361; IC50 (Mitomycin C): 378 nM; AUC (Bosutinib): 0.796; IC50 (Bosutinib): 1170 nM; AUC (IOX2): 0.978; IC50 (IOX2): > 100 nM

**Q.** For KYSE-140 (oesophagus, adherent), which AUC (NVP-BHG712) is on record?
**A.** Its AUC is 0.817.

**Q.** What about the IC50 (NVP-BHG712) of the same cell line?
**A.** Its IC50 is 6740 nM.

**Q.** What about the AUC (Midostaurin) of the same cell line?
**A.** Its AUC is 0.906.

**Q.** And the IC50 (Midostaurin)?
**A.** The IC50 was greater than 512 nM.

**Q.** What about the AUC (Mitomycin C) of the same cell line?
**A.** The AUC was 0.399.

**Q.** What about the IC50 (Mitomycin C) of the same cell line?
**A.** The IC50 was 508 nM.

**Q.** What about the AUC (Bosutinib) of the same cell line?
**A.** The AUC was 0.748.

**Q.** What about the IC50 (Bosutinib) of the same cell line?
**A.** Its IC50 is 719 nM.

**Q.** What about the AUC (IOX2) of the same cell line?
**A.** Its AUC is 0.967.

**Q.** And the IC50 (IOX2)?
**A.** Its IC50 is greater than 100 nM.

**Q.** What does the source list for SW626 (ovary, adherent)?
**A.** AUC (NVP-BHG712): 0.83; IC50 (NVP-BHG712): 8100 nM; AUC (Midostaurin): 0.909; IC50 (Midostaurin): > 512 nM; AUC (Mitomycin C): 0.333; IC50 (Mitomycin C): 313 nM; AUC (Bosutinib): 0.957; IC50 (Bosutinib): > 2000 nM; AUC (IOX2): 0.981; IC50 (IOX2): > 100 nM

**Q.** For H513 (mesothelioma, semi-adherent), which AUC (NVP-BHG712) is on record?
**A.** The AUC was 0.961.

**Q.** And the IC50 (NVP-BHG712)?
**A.** The IC50 was greater than 10200 nM.

**Q.** And the AUC (Midostaurin)?
**A.** The AUC was 0.948.

**Q.** And the IC50 (Midostaurin)?
**A.** Its IC50 is greater than 512 nM.

**Q.** And the AUC (Mitomycin C)?
**A.** The AUC was 0.673.

**Q.** And the IC50 (Mitomycin C)?
**A.** The IC50 was 3400 nM.

**Q.** What about the AUC (Bosutinib) of the same cell line?
**A.** Its AUC is 0.939.

**Q.** And the IC50 (Bosutinib)?
**A.** Its IC50 is greater than 2000 nM.

**Q.** And the AUC (IOX2)?
**A.** Its AUC is 0.971.

**Q.** And the IC50 (IOX2)?
**A.** The IC50 was greater than 100 nM.

**Q.** What does the source list for “NCI-H1623 (lung adenocarcinoma, adherent)”?
**A.** AUC (NVP-BHG712): 0.968; IC50 (NVP-BHG712): > 10200 nM; AUC (Midostaurin): 0.979; IC50 (Midostaurin): > 512 nM; AUC (Mitomycin C): 0.511; IC50 (Mitomycin C): 1080 nM; AUC (Bosutinib): 0.978; IC50 (Bosutinib): > 2000 nM; AUC (IOX2): 0.978; IC50 (IOX2): > 100 nM

**Q.** With KYSE-150 (oesophagus, adherent) as the cell line, how does the AUC (NVP-BHG712) read?
**A.** The AUC was 0.985.

**Q.** And the IC50 (NVP-BHG712)?
**A.** The IC50 was greater than 10200 nM.

**Q.** What about the AUC (Midostaurin) of the same cell line?
**A.** Its AUC is 0.813.

**Q.** What about the IC50 (Midostaurin) of the same cell line?
**A.** Its IC50 is 262 nM.

**Q.** And the AUC (Mitomycin C)?
**A.** Its AUC is 0.145.

**Q.** And the IC50 (Mitomycin C)?
**A.** The IC50 was 83.8 nM.

**Q.** What about the AUC (Bosutinib) of the same cell line?
**A.** Its AUC is 0.961.

**Q.** What about the IC50 (Bosutinib) of the same cell line?
**A.** Its IC50 is greater than 2000 nM.

**Q.** What about the AUC (IOX2) of the same cell line?
**A.** The AUC was 0.987.

**Q.** And the IC50 (IOX2)?
**A.** Its IC50 is greater than 100 nM.

**Q.** For SK-MEL-24 (melanoma, adherent), which AUC (NVP-BHG712) is on record?
**A.** The AUC was 0.604.

**Q.** And the IC50 (NVP-BHG712)?
**A.** The IC50 was 1310 nM.

**Q.** And the AUC (Midostaurin)?
**A.** Its AUC is 0.977.

**Q.** And the IC50 (Midostaurin)?
**A.** Its IC50 is greater than 512 nM.

**Q.** What about the AUC (Mitomycin C) of the same cell line?
**A.** Its AUC is 0.54.

**Q.** What about the IC50 (Mitomycin C) of the same cell line?
**A.** Its IC50 is 1310 nM.

**Q.** What about the AUC (Bosutinib) of the same cell line?
**A.** The AUC was 0.95.

**Q.** And the IC50 (Bosutinib)?
**A.** The IC50 was greater than 2000 nM.

**Q.** And the AUC (IOX2)?
**A.** The AUC was 0.976.

**Q.** What about the IC50 (IOX2) of the same cell line?
**A.** The IC50 was greater than 100 nM.

**Q.** With 42-MG-BA (glioma, adherent) as the cell line, how does the AUC (NVP-BHG712) read?
**A.** The AUC was 0.939.

**Q.** What about the IC50 (NVP-BHG712) of the same cell line?
**A.** The IC50 was greater than 10200 nM.

**Q.** What about the AUC (Midostaurin) of the same cell line?
**A.** The AUC was 0.736.

**Q.** And the IC50 (Midostaurin)?
**A.** Its IC50 is 159 nM.

**Q.** What about the AUC (Mitomycin C) of the same cell line?
**A.** Its AUC is 0.65.

**Q.** And the IC50 (Mitomycin C)?
**A.** The IC50 was 2680 nM.

**Q.** And the AUC (Bosutinib)?
**A.** The AUC was 0.953.

**Q.** What about the IC50 (Bosutinib) of the same cell line?
**A.** The IC50 was greater than 2000 nM.

**Q.** What about the AUC (IOX2) of the same cell line?
**A.** Its AUC is 0.984.

**Q.** And the IC50 (IOX2)?
**A.** The IC50 was greater than 100 nM.

**Q.** For PFSK-1 (medulloblastoma, adherent), which AUC (NVP-BHG712) is on record?
**A.** Its AUC is 0.972.

**Q.** What about the IC50 (NVP-BHG712) of the same cell line?
**A.** Its IC50 is greater than 10200 nM.

**Q.** And the AUC (Midostaurin)?
**A.** Its AUC is 0.975.

**Q.** What about the IC50 (Midostaurin) of the same cell line?
**A.** The IC50 was greater than 512 nM.

**Q.** And the AUC (Mitomycin C)?
**A.** Its AUC is 0.732.

**Q.** What about the IC50 (Mitomycin C) of the same cell line?
**A.** The IC50 was 4790 nM.

**Q.** And the AUC (Bosutinib)?
**A.** The AUC was 0.959.

**Q.** And the IC50 (Bosutinib)?
**A.** Its IC50 is greater than 2000 nM.

**Q.** And the AUC (IOX2)?
**A.** Its AUC is 0.966.

**Q.** And the IC50 (IOX2)?
**A.** The IC50 was greater than 100 nM.

**Q.** Which results are given for MC-IXC (neuroblastoma, adherent)?
**A.** AUC (NVP-BHG712): 0.931; IC50 (NVP-BHG712): 8950 nM; AUC (Midostaurin): 0.758; IC50 (Midostaurin): 137 nM; AUC (Mitomycin C): 0.022; IC50 (Mitomycin C): < 62.5 nM; AUC (Bosutinib): 0.991; IC50 (Bosutinib): > 2000 nM; AUC (IOX2): 0.996; IC50 (IOX2): > 100 nM

IC50 is the fitted dose that halves viability relative to control wells, and lower means more sensitive; a limit (>, <) means that the fit lies beyond the doses tested. AUC, from the same fit, is the share of area under the viability curve across the 256-fold dose range; values near 1 show little effect. For some of these results: Any top dose called inferred was derived from the fitted curves, not read from the paper.
